± gives the standard deviation of the averaged measurements. The list shows a part of the results.
Each sequence was assayed on PfAP2-EXP AP2 domain (GST-tagged) (assay: gcPBM binding intensity (ln(normalized median fluorescence intensity)); higher = stronger DNA binding).
Procedure, shortened: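 GST-tagged P. falciparum DNA-binding domains, expressed in E. coli (about 25 μg on average), were applied for 1 h to an Agilent 4 × 180k array of primer-extended double-stranded 36-bp intergenic genomic probes plus negative controls. The binding buffer was 1× PBS with 1% milk, 0.2 mg/ml BSA, 0.5% salmon testes DNA and 0.03% Triton X-100. Bound protein was detected with Alexa488 anti-GST antibody and scanned at 488 nm. Binding intensity is the highest Masliner-normalised natural-log median intensity across replicate spots of either probe orientation.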

Row | Sequence | gcPBM binding intensity (ln)
1 | AAAGGCTATCTTATATACTCCTAAAACGCGAACGTA [CACACA_negctrl_site396] | 8.32 ± 0.56
2 | AATATATAAATATTGTGTACTTATTTTTTTATATGT [XGTACX_site4377] | 8.49 ± 0.18
3 | ATAAATTCTATGTATACACACATATAAAATATAGAT [CACACA_site7296] | 8.38 ± 0.4
4 | ATTATATACATATATGCACACAAAAAAATATATATT [CACACA_site8508] | 8.72 ± 0.43
5 | ATACAAATTGTTTAAAGTACAAATTACACCTCTTAA [XGTACX_site6888] | 8.32 ± 0.45
6 | TATATACACATATATAAACACACAAAAAAAAAAAAA [CACACA_site8626] | 8.28 ± 0.61
7 | TGTAAATATATATATACACACACACCGAAGCAATAG [CACACA_site8960] | 9.11 ± 0.49
8 | CATACAGACATACATACACACATACATACAGACATA [CACACA_site6996] | 8.65 ± 0.56
9 | GTATATCACACATTTGCATGTTGTCAATAGTTTATC [TGCATGCA_site134] | 9.04 ± 0.35
10 | TAAAAAGGAAGACACACACACACATATATAAATATA [CACACA_site7657] | 8.72 ± 0.43
11 | TTTTTTTTTTTTTAAACATGCATATTAATATTATAT [TGCATGCA_site820] | 8.59 ± 0.38
12 | ACATTAAAAAAAAAATGTACATAAATATTTTTCCTT [XGTACX_site4361] | 8.24 ± 0.34
13 | ATCTTTTATATAAAATGTACAGAGTTTGAAAGAATA [XGTACX_site8826] | 8.66 ± 0.54
14 | AATTTTATTCATTGAGCACACAAAATAAATTATCAA [CACACA_site9079] | 8.32 ± 0.26
15 | GTATTACAACGACACACACACCTATATATCATAGTA [CACACA_site7877] | 8.64 ± 0.39
16 | TAGAACAAATAAAACACACACATATAAATATAGATG [CACACA_site7325] | 8.59 ± 0.32
17 | GATATTATGTGTTTGGTATTTTTTGATGTTGGTAGG [XGTACX_negctrl_site563] | 8.8 ± 0.64
18 | GTGCAAAATATTTTTACACACAAATTCTTACAACAG [CACACA_site7556] | 8.66 ± 0.17
19 | ATATCTATGTTTATCTCGAATAACTTAAAAAATTAT [CACACA_negctrl_site1131] | 8.37 ± 0.45
20 | TTTATACAAACAACTTTATATTAATGTTTAACGGAG [GTGCAC_negctrl_site396] | 8.35 ± 0.54
21 | AAGGCAAACAAACACACACACATATATACATATATA [CACACA_site2122] | 8.62 ± 0.44
22 | TCTTTCTAAAGATGTAGTACAAAATAAATATAATAT [XGTACX_site6564] | 8.76 ± 0.42
23 | TAATATGCTCATGTAACACACATTTGCATATTTTTC [CACACA_site1357] | 8.74 ± 0.38

Row | Sequence | gcPBM binding intensity (ln)
24 | TTATCACACCTTTTTTGTACGAAATAAAAAAAAAAA [XGTACX_site5564] | 8.33 ± 0.37
25 | ATTTTTACTTTTTATGCATGCTATATTTTCAACCAT [TGCATGCA_site871] | 9.91 ± 0.22
26 | GGTATTACTTTTAGCTGTACTTATTTAAAAGTCAAA [XGTACX_site530] | 8.81 ± 0.13
27 | ATTTTTTTTTTTTTATGTACATATTAAAAAAAATAT [XGTACX_site1829] | 8.49 ± 0.39
28 | ATTAAGGAAAAATTATGTACACAAAAACATATAACA [XGTACX_site2901] | 8.88 ± 0.21
29 | TATACATGTTCAATTTGTACATATATAAATATATAT [XGTACX_site3554] | 8.38 ± 0.29
30 | CTACACAAGCATTAAACACACAAAAGGGATACTTTG [CACACA_site1083] | 8.61 ± 0.57
31 | ATTCAAAAAAATAAAATAAACATAAATAAACATAAA [TGCATGCA_negctrl_site390] | 8.62 ± 0.4
32 | AAAATATTTAAGCATTGTACATATTTTTACAAATAC [XGTACX_site5349] | 8.38 ± 0.42
33 | AAAATTCATCCAACAAGTACATAAATATAATATTAT [XGTACX_site4596] | 8.48 ± 0.35
34 | GGAAAAAGAAATTAATGTACATGTGGATGTATGAGG [XGTACX_site5468] | 8.95 ± 0.43
35 | TAGAAACCATAAAAATGTACTTAAAAATAGACAATT [XGTACX_site5007] | 8.53 ± 0.3
36 | AAGAACAGATAAAATCGTACGTGAAACATGAACTTG [XGTACX_site7793] | 8.67 ± 0.33
37 | TCTGAAATTTTAGGGGTGCCTGGGACTAAAGAAACG [GTGCAC_site9785] | 8.74 ± 0.33
38 | ATACATAAATATTATTGTACATATATAATATTAATA [XGTACX_site3514] | 8.29 ± 0.35
39 | ATAAATTCATTATATTGTACAAACAAATGAAAAAAA [XGTACX_site8304] | 8.57 ± 0.33
40 | AGACTTTTTATGAGCACACACATATATTATGGAGTA [CACACA_site1040] | 8.56 ± 0.38
41 | TTTAATTCCCATATATGTACACAATTTCTTCTATAA [XGTACX_site1465] | 8.86 ± 0.47
42 | TCTTCATATGTTTACTGTACGAGAAAAAAAAAAAAA [XGTACX_site6418] | 8.62 ± 0.5
43 | TATGTGTATTTATTTGCATGTTGGTTGTATTTTTTC [TGCATGCA_site479] | 8.66 ± 0.35
44 | TAATAAAATAAAAATTGTACATTTTATATTTATCAA [XGTACX_site5134] | 8.01 ± 0.3
45 | AATGAAAAAAAAAAAAAAAAGAAGAAGCAAATGGTA [TGCATGCA_negctrl_site335] | 8.62 ± 0.7
46 | AGATTATTTGGACATGCATGTAAAAAAATACGTATA [TGCATGCA_site972] | 9.57 ± 0.3

Row | Sequence | gcPBM binding intensity (ln)
47 | ATAAATAATTATATATGTACACATTATGAATGGATA [XGTACX_site8336] | 8.73 ± 0.35
48 | AAAAGTGATAATAAGAGTACATAAAAAATTTATTAT [XGTACX_site8037] | 8.63 ± 0.3
49 | TTATTTGTTTGTTGGATGCTTTTTTTTTTTTTTTTT [CACACA_negctrl_site1697] | 8.71 ± 0.2
50 | TACATATATATAATATGTACTTATAATATGTATTTA [XGTACX_site2162] | 8.09 ± 0.31
51 | ATTTCCCACTTGTGTGTGCGCATGTGTATATATTTA [GTGCAC_site9949] | 9.18 ± 0.45
52 | AAATAATTTATAAATAAATACATTGTTACTTTTTCT [GTGCAC_negctrl_site639] | 8.23 ± 0.29
53 | TATTCTATACTATATTGTACTATAATATAATATACT [XGTACX_site797] | 8.44 ± 0.31
54 | AGCCACTTAAAATACACACACACCAAAAAAAAAAAA [CACACA_site5497] | 8.31 ± 0.42
55 | TATTTTATTTATTGAAGTACATTATACAAAAATAAA [XGTACX_site4824] | 8.47 ± 0.27
56 | TATTCGAACAAAAATACATGCACATATGCATAATAA [TGCATGCA_site171] | 8.89 ± 0.099
57 | TTTTCCAGTAAATATTTTTTTATAATATTTATATAT [CACACA_negctrl_site387] | 8.3 ± 0.4
58 | AAATAAAATAAAATACGTACCTATTGTGCGTATTAA [XGTACX_site2912] | 8.11 ± 0.2
59 | TAATAAATGTTATTAGTGCATAATAGATAATATATT | 8.75 ± 0.13
60 | AATAATTTCCAAAAATGTACATATATTTACATATAT [XGTACX_site1790] | 8.4 ± 0.4
61 | ATTTTAACTCCCCTTAATCTATTGTATATATATATA [CACACA_negctrl_site208] | 9.95 ± 0.21
62 | ATTGTGGATATTCTTACACACAAATTTATTTATAAA [CACACA_site7267] | 8.13 ± 0.36
63 | TAAGAAATTGAGCGCACACATACATCTGTGGGATGG [CACACA_site1548] | 8.65 ± 0.69
64 | TTTTTTTCTTCTTTTCTCTTAAAAATATTGAATATT [CACACA_negctrl_site1762] | 8.49 ± 0.49
65 | ATGTAAATATTTTGTATGCACTTTGATGCATCTTTT | 8.64 ± 0.25
66 | TCAAGAGTTATATAAACACACATACATACAGACATA [CACACA_site6998] | 8.76 ± 0.58
67 | AAAAAAAAAAAAAAAAAAAAAAAAAAAAAAAAAAAG [CACACA_negctrl_site292] | 9.325 ± 0.035
68 | GTTTTCTAGTGGGGGTGTACATATTTATATTTAATA [XGTACX_site8378] | 10.9 ± 0.34
69 | ATATATATATAATAAGTGCAAAAAAAAGAAAAAAAT | 9.285 ± 0.078

Row | Sequence | gcPBM binding intensity (ln)
70 | AGCAAAAAAAAAAAAAAAAAAAAAATAATAAAAAAT [TGCATGCA_negctrl_site202] | 8.19 ± 0.5
71 | CATATATTAATATGTACACACATTAATAAAAAAAAA [CACACA_site7504] | 8.32 ± 0.29
72 | TTTTTTTTTTTTGAGGTGCATATATCAGATCAATAT | 8.705 ± 0.035
73 | AGTATTCATAAAAATACACACATGGAAAAATAAAAT [CACACA_site1454] | 8.82 ± 0.59
74 | ATATATACATATATTACACACTTCTTATTCTAAGAA [CACACA_site3022] | 8.38 ± 0.45
75 | CTAGCAAATACATACACACACACACCGATACAGATA [CACACA_site5853] | 8.66 ± 0.66
76 | TATAATATAAGGATCACACACAAACACCCATATATA [CACACA_site4468] | 8.74 ± 0.52
77 | TCCATAAAAATGGATACACACACATAATATATATAT [CACACA_site9207] | 9.3 ± 0.28
78 | CATACATACATACATACACACATACCTATATTTATA [CACACA_site6769] | 9.2 ± 0.2
79 | TTAATAACAAAATAAACACACATATATAAATACCCA [CACACA_site4960] | 8.6 ± 0.54
80 | TTTGAAATAAGCAAATGTACATTATTATTAAATATA [XGTACX_site6158] | 8.38 ± 0.32
81 | TTGCCCATTTAATTAACACACAAATGTTTATATTCT [CACACA_site6488] | 8.79 ± 0.24
82 | TGTATGATAACTATAGTGCATTTGGTAATTTTTCCA | 8.52 ± 0.29
83 | TTCACATACAGAAACACACACATATATATAAATTAA [CACACA_site3705] | 8.6 ± 0.45
84 | TATTTCATGATACAATGTACATGTATATATGATACC [XGTACX_site5057] | 8.62 ± 0.34
85 | AATAATATATATTACACACGCATCGTTCATTTATTT [CACACA_site2391] | 8.9 ± 0.59
86 | AAATATAATATATGCACACATACATACAGATATATA [CACACA_site4235] | 8.4 ± 0.18
87 | ATAAATATAGGACACACACACATATTATATATATAT [CACACA_site5658] | 9.65 ± 0.12
88 | ATAATATAAATATGCACACAAATTATTACCCAAAAA [CACACA_site2524] | 8.56 ± 0.2
89 | GTTATATTCCTACAGAGTACATAAAAATGCACATCA [XGTACX_site1948] | 8.64 ± 0.13
